Measured values reported in PMC12136788.
The other results are listed elsewhere or left out.

T1: UNK ZnF1-3 (human, UniProt Q9C0B0 31-174)
T1 sequence: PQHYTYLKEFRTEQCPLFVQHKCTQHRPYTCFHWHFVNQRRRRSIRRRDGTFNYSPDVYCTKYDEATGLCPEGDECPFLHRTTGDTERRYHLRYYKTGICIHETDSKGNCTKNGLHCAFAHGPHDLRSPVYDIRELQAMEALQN

B1: chr21:44329077:44329078:+_ENSG00000160194_ENST00000354250|hu_mus|FALSE|FALSE (ssRNA)
RNA: GGGAGUUCUACAGUCCGACGAUCCUCUCGUCCUGAAGACGGCUGUGGCAGCCUGAAUUUGGAGAGGUCCAGGUUCAGGUCCAGGAAGGUGUAUGUGUUGUAGUCAUGGUGCUGCAGGUUCUUGUAGGUGGUGGUGUCAGUCGGCAACAGAGGAUUGAGCAUCA
B2: chr19:55172109:55172110:-_ENSMUSG00000024978_ENSMUST00000061856|mus_mus|FALSE|FALSE (ssRNA)
RNA: GGGAGUUCUACAGUCCGACGAUCGUGUGUUUACAUCGGCCAAGGCUGUAUUCCGAUGAACUGGGCAGAUAAGAAACGUCUAUUGUGCCAACUGUCACUGAAGACUCCUCCAUGGCAGAACGUGCAAGUCCCAAACCAUGUGCUCAACAGAGGAUUGAGCAUCA
B3: chr2:26350769:26350770:+_ENSG00000084733_ENST00000264710|hu_mus|motif|central (ssRNA)
RNA: GGGAGUUCUACAGUCCGACGAUCGAUGUCUUCAGCUAAUGUGAGGAACGCCUUUUCGAUGUUUAUAUUUGCUUUUGCACGGGUCUCAAAAAACCUAAUACCAUGCUCCCUUGCAAUCUGUUCUCCUUUGCCUUUCGGUACAACCAACAGAGGAUUGAGCAUCA
B4: chr6:114281168:114281169:-_ENSG00000196591_ENST00000368632|hu_hu|hu_hu_hu_mus_True|68_98 (ssRNA)
RNA: GGGAGUUCUACAGUCCGACGAUCUUCCAUUUUUCGGUAUAAGCCAUAAUUUAGCAGCAAGUUAUGAGUCAUGCGGAUUCUAUGAGGCUUCAUGGGAUGACCCUGGCCAUAAUAAUAAUUGCCAAUAUCACCAUCAUAGUAGUACAACAGAGGAUUGAGCAUCA
B5: chr13:36049296:36049297:-_ENSG00000180660_ENST00000379919|hu_mus|motif|central (ssRNA)
RNA: GGGAGUUCUACAGUCCGACGAUCCCACGUUUGUUUAGCAGCGUUUUCCAAGGCCGAGUGGGGUUUGCCUUGAAACAGAUCGGAGUUCGGUAAGAAGUAAUGGGGACACCGCCGGCACUGCAGGCAUGAGAUGAGCUGCAGAAGCAACAGAGGAUUGAGCAUCA
B6: chrX:91780989:91780990:-_ENSMUSG00000025151_ENSMUST00000026142|mus_mus|FALSE|FALSE (ssRNA)
RNA: GGGAGUUCUACAGUCCGACGAUCCUCUCUAGAUAGCGUGUUUUGAAGGAACCUGAGGCUUCAGCCUCACUCAGGGAAAACUAUUGCAAAUGAUGAGCAGUAUCUGACAAUUUACUCAACCCAGAAGAAGCCAAUGGCACCGAACAACAGAGGAUUGAGCAUCA
B7: chr2:192257801:192257802:+_ENSG00000128641_ENST00000304164|hu_hu|motif|central (ssRNA)
RNA: GGGAGUUCUACAGUCCGACGAUCAUAUAUCUUCUGAAUGAGAGUGGCCAAGUCCUCCAGGCGUUGCUUCCUCAGGUCUUCGGAUUUGAAUAAUGUUCUUGGGUUUCGGAUGAAUAUCUUUGAUCUACCAAAGGAGUAUUCUUCCAACAGAGGAUUGAGCAUCA
B8: chr15:76910149:76910150:-_ENSMUSG00000033565_ENSMUST00000166610|mus_mus|motif|central (ssRNA)
RNA: GGGAGUUCUACAGUCCGACGAUCAAUGCUGACGGAGGGAAGUCAUGUCUCUUAGGGGAAAGGAUCAGCUCAUCACUCGCGGUAUAACGCAGCCAAACGGGCUGCCCAACAAGCACGCACACAAGAAAUACUGUUAACAGAAAACAACAGAGGAUUGAGCAUCA
B9: chr1:114340281:114340282:-_ENSG00000081019_ENST00000261441|hu_mus|FALSE|FALSE (ssRNA)
RNA: GGGAGUUCUACAGUCCGACGAUCGUAUGCAUGAAGGACAAGAGCACCCCCAUUGGACUGGUGUUCUUCGUGAAUAAAGUUGCUAAAUUUAGUACCUGUUUUUAAGAAAUUUCUGCGAAUAGAAUGUUCUUGGUGCGUUGUAAACAACAGAGGAUUGAGCAUCA
B10: chr11:69480760:69480761:-_ENSMUSG00000059796_ENSMUST00000163666|mus_mus|FALSE|FALSE (ssRNA)
RNA: GGGAGUUCUACAGUCCGACGAUCUGGGGGGGGAAGGAGACGGCGCCUGGGGCAGAGCCUACCCCAAAGAAAAGGGUGUCUAAAAUGUUCACGGUUCCUUCUUUUUGCCUCAAAAAGUGACAUUUAUUCAUAGAGAAAAAAAACCAACAGAGGAUUGAGCAUCA
B11: chr3:72423869:72423870:-_ENSG00000163602_ENST00000477973|hu_hu|FALSE|FALSE (ssRNA)
RNA: GGGAGUUCUACAGUCCGACGAUCGCAGAAUUCAUAAAUAGACAUUUCUAUUUAAAGCAGGAAAAUGAUAAAGUGGCUUCUAAUAACAUAGUCGUGCACAUGCCAGUAACAGGAAUAUAUUAACAUCUUUUAUUUGCUAGACAACAACAGAGGAUUGAGCAUCA
B12: 5037140_5048872_172_CDS_ENSMUSG00000022536_ENSMUST00000115844|mouse|control|control (ssRNA)
RNA: GGGAGUUCUACAGUCCGACGAUCGAUCCAGGCAUGAUCUUCUGUUCCAAAAAACUUCACAAAGAAGCAUUUCUUUCCACGUGGUUUCUUUAAGUCCUUGGGUGGAUUAACAAUCUUUCCUGGCCAGGGAGGAUACCGGCCCAGCAACAGAGGAUUGAGCAUCA
B13: 126671170_126673164_2480_3pUTR_ENSMUSG00000074657_ENSMUST00000099172|mouse|control|control (ssRNA)
RNA: GGGAGUUCUACAGUCCGACGAUCGGGCAACUGUCUCCUCCAGCCCCUUGAGGUCCUGCUUGGACUGCUCAUGUCGCUCAUACAGAAAUGUCAGCUCCUGGAGCUUGGCGCUCUUCUCGUUCUCUUCAUUCUUCAGCCUCUCAUCAACAGAGGAUUGAGCAUCA
B14: 48026277_48026397_876_CDS_ENSG00000116062_ENST00000540021|human|control|control (ssRNA)
RNA: GGGAGUUCUACAGUCCGACGAUCGAUGACAAGAUCAAAGUUCUGAGACUUAAUCUGCCACCACUUCCUCAUCCCAGGAGUACAAGAAUUGAGGAAAUCCUCAGGCACAUAGAGUGUAGAUGCAUCAAAAUCGGGGUGAUCAGGCAACAGAGGAUUGAGCAUCA

Each binder was assayed against T1, UNK ZnF1-3 (assay: nsRBNS (natural sequence RNA bind-n-seq); RBNS binding buffer (assumed for nsRBNS): 25 mM Tris pH 7.5, 150 mM KCl, 3 mM MgCl2, 0.01% Triton X-100, 500 ug/ml BSA, 20 U/ml SUPERase-In, 4 C; UNK is unkempt and MSI1 is Musashi-1; names of the RNAs are library labels; protein concentration not given here; high values mean tight binding).

| Binder | binding signal [enrichment R] |
| --- | --- |
| B1 | 0.911 |
| B2 | 0.84 |
| B3 | 0.639 |
| B4 | 1.05 |
| B5 | 1.34 |
| B6 | 1.31 |
| B7 | 0.775 |
| B8 | 1.88 |
| B9 | 0.946 |
| B10 | 2.12 |
| B11 | 1.31 |
| B12 | 0.853 |
| B13 | 0.61 |
| B14 | 1.8 |
